# Experimental data as given in the supplement of paper PMC8728848.
# Some of the results follow.
# Key:
# Test in all cases: glycan array binding signal (z-score within array); higher = stronger binding
# Conditions in all cases: glycan notation: IUPAC condensed, linker removed
# [1] = molecular target: Fuc(a1-2)Gal6S(b1-3)GlcNAc
# Method in brief: (§1)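 The binding signal is a Z-score computed within each array and averaged over linkers. Arrays of the same protein sequence at different concentrations or buffers were also averaged together. Data originate from 3228 arrays in the Consortium for Functional Glycomics database, kept only where the protein sequence was available.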
# [2] = molecular target: Fuc(a1-2)Gal6S(b1-3)GlcNAc6S
# Method in brief: as §1
# Fuc(a1-2)Gal6S(b1-4)Glc = molecular target: Fuc(a1-2)Gal6S(b1-4)Glc
# Method in brief: as §1
# [3] = molecular target: Fuc(a1-2)Gal6S(b1-4)Glc6S
# Method in brief: as §1
# Fuc(a1-2)[Gal(a1-3)]Gal = molecular target: Fuc(a1-2)[Gal(a1-3)]Gal
# Method in brief: as §1
# [4] = molecular target: Fuc(a1-2)[Gal(a1-3)]Gal(b1-3)GalNAc
# Method in brief: as §1
# [5] = molecular target: Fuc(a1-2)[Gal(a1-3)]Gal(b1-3)GalNAc(b1-3)Gal(a1-4)Gal(b1-4)Glc
# Method in brief: as §1
# [6] = molecular target: Fuc(a1-2)[Gal(a1-3)]Gal(b1-3)GlcNAc
# Method in brief: as §1
# [7] = molecular target: Fuc(a1-2)[Gal(a1-3)]Gal(b1-3)GlcNAc(b1-2)Man(a1-3)[Fuc(a1-2)[Gal(a1-3)]Gal(b1-3)GlcNAc(b1-2)Man(a1-6)]Man(b1-4)GlcNAc(b1-4)GlcNAc
# Method in brief: as §1
# [8] = molecular target: Fuc(a1-2)[Gal(a1-3)]Gal(b1-3)GlcNAc(b1-2)Man(a1-3)[Fuc(a1-2)[Gal(a1-3)]Gal(b1-3)GlcNAc(b1-2)Man(a1-6)]Man(b1-4)GlcNAc(b1-4)[Fuc(a1-6)]GlcNAc
# Method in brief: as §1
# [9] = molecular target: Fuc(a1-2)[Gal(a1-3)]Gal(b1-3)GlcNAc(b1-3)GalNAc
# Method in brief: as §1
# [10] = molecular target: Fuc(a1-2)[Gal(a1-3)]Gal(b1-3)GlcNAc(b1-6)GalNAc
# Method in brief: as §1
# [11] = molecular target: Fuc(a1-2)[Gal(a1-3)]Gal(b1-4)Glc
# Method in brief: as §1
# [12] = molecular target: Fuc(a1-2)[Gal(a1-3)]Gal(b1-4)GlcNAc
# Method in brief: as §1
# [13] = molecular target: Fuc(a1-2)[Gal(a1-3)]Gal(b1-4)GlcNAc(b1-2)Man
# Method in brief: as §1
# [14] = molecular target: Fuc(a1-2)[Gal(a1-3)]Gal(b1-4)GlcNAc(b1-2)Man(a1-3)[Fuc(a1-2)[Gal(a1-3)]Gal(b1-4)GlcNAc(b1-2)Man(a1-6)]Man(b1-4)GlcNAc(b1-4)GlcNAc
# Method in brief: as §1
# [15] = molecular target: Fuc(a1-2)[Gal(a1-3)]Gal(b1-4)GlcNAc(b1-2)Man(a1-3)[Fuc(a1-2)[Gal(a1-3)]Gal(b1-4)GlcNAc(b1-2)Man(a1-6)]Man(b1-4)GlcNAc(b1-4)[Fuc(a1-6)]GlcNAc
# Method in brief: as §1
# [16] = molecular target: Fuc(a1-2)[Gal(a1-3)]Gal(b1-4)GlcNAc(b1-3)GalNAc
# Method in brief: as §1
# [17] = molecular target: Fuc(a1-2)[Gal(a1-3)]Gal(b1-4)GlcNAc(b1-3)[Fuc(a1-2)[Gal(a1-3)]Gal(b1-4)GlcNAc(b1-6)]GalNAc
# Method in brief: as §1
# [18] = molecular target: Fuc(a1-2)[Gal(a1-3)]Gal(b1-4)GlcNAc(b1-6)GalNAc
# Method in brief: as §1
# [19] = molecular target: Fuc(a1-2)[Gal(a1-3)]Gal(b1-4)[Fuc(a1-3)]Glc
# Method in brief: as §1
# [20] = molecular target: Fuc(a1-2)[Gal(a1-3)]Gal(b1-4)[Fuc(a1-3)]GlcNAc
# Method in brief: as §1
# [21] = molecular target: Fuc(a1-2)[Gal(a1-3)]Gal(b1-4)[Fuc(a1-3)]GlcNAc(b1-3)GalNAc
# Method in brief: as §1
# [22] = molecular target: Fuc(a1-2)[Gal(a1-4)]Gal(b1-4)GlcNAc
# Method in brief: as §1
# [23] = molecular target: Fuc(a1-2)[GalNAc(a1-3)]Gal
# Method in brief: as §1
# [24] = molecular target: Fuc(a1-2)[GalNAc(a1-3)]Gal(b1-3)GalNAc(a1-3)[Fuc(a1-2)]Gal(b1-4)GlcNAc
# Method in brief: as §1
# [25] = molecular target: Fuc(a1-2)[GalNAc(a1-3)]Gal(b1-3)GalNAc(b1-3)Gal(a1-4)Gal(b1-4)Glc
# Method in brief: as §1
# [26] = molecular target: Fuc(a1-2)[GalNAc(a1-3)]Gal(b1-3)GlcNAc
# Method in brief: as §1
# [27] = molecular target: Fuc(a1-2)[GalNAc(a1-3)]Gal(b1-3)GlcNAc(b1-2)Man(a1-3)[Fuc(a1-2)[GalNAc(a1-3)]Gal(b1-3)GlcNAc(b1-2)Man(a1-6)]Man(b1-4)GlcNAc(b1-4)GlcNAc
# Method in brief: as §1
# [28] = molecular target: Fuc(a1-2)[GalNAc(a1-3)]Gal(b1-3)GlcNAc(b1-2)Man(a1-3)[Fuc(a1-2)[GalNAc(a1-3)]Gal(b1-3)GlcNAc(b1-2)Man(a1-6)]Man(b1-4)GlcNAc(b1-4)[Fuc(a1-6)]GlcNAc
# Method in brief: as §1
# [29] = molecular target: Fuc(a1-2)[GalNAc(a1-3)]Gal(b1-3)GlcNAc(b1-3)GalNAc
# Method in brief: as §1
# [30] = molecular target: Fuc(a1-2)[GalNAc(a1-3)]Gal(b1-3)GlcNAc(b1-6)GalNAc
# Method in brief: as §1
# [31] = molecular target: Fuc(a1-2)[GalNAc(a1-3)]Gal(b1-4)Glc
# Method in brief: as §1
# [32] = molecular target: Fuc(a1-2)[GalNAc(a1-3)]Gal(b1-4)GlcNAc
# Method in brief: as §1
# [33] = molecular target: Fuc(a1-2)[GalNAc(a1-3)]Gal(b1-4)GlcNAc(b1-2)Man
# Method in brief: as §1
# [34] = molecular target: Fuc(a1-2)[GalNAc(a1-3)]Gal(b1-4)GlcNAc(b1-2)Man(a1-3)[Fuc(a1-2)[GalNAc(a1-3)]Gal(b1-4)GlcNAc(b1-2)Man(a1-6)]Man(b1-4)GlcNAc(b1-4)GlcNAc
# Method in brief: as §1
# [35] = molecular target: Fuc(a1-2)[GalNAc(a1-3)]Gal(b1-4)GlcNAc(b1-2)Man(a1-3)[Fuc(a1-2)[GalNAc(a1-3)]Gal(b1-4)GlcNAc(b1-2)Man(a1-6)]Man(b1-4)GlcNAc(b1-4)[Fuc(a1-6)]GlcNAc
# Method in brief: as §1
# [36] = molecular target: Fuc(a1-2)[GalNAc(a1-3)]Gal(b1-4)GlcNAc(b1-3)Gal(b1-4)GlcNAc
# Method in brief: as §1
# [37] = molecular target: Fuc(a1-2)[GalNAc(a1-3)]Gal(b1-4)GlcNAc(b1-3)Gal(b1-4)GlcNAc(b1-3)Gal(b1-4)GlcNAc
# Method in brief: as §1
# [38] = molecular target: Fuc(a1-2)[GalNAc(a1-3)]Gal(b1-4)GlcNAc(b1-3)GalNAc
# Method in brief: as §1
# [39] = molecular target: Fuc(a1-2)[GalNAc(a1-3)]Gal(b1-4)GlcNAc(b1-3)[Fuc(a1-2)[GalNAc(a1-3)]Gal(b1-4)GlcNAc(b1-6)]GalNAc
# Method in brief: as §1
# [40] = molecular target: Fuc(a1-2)[GalNAc(a1-3)]Gal(b1-4)GlcNAc(b1-6)GalNAc
# Method in brief: as §1
# [41] = molecular target: Fuc(a1-2)[GalNAc(a1-3)]Gal(b1-4)[Fuc(a1-3)]GlcNAc
# Method in brief: as §1
# [42] = molecular target: Fuc(a1-2)[GalNAc(a1-3)]Gal(b1-4)[Fuc(a1-3)]GlcNAc(b1-3)GalNAc
# Method in brief: as §1
# [43] = molecular target: Fuc(a1-2)[GalNAc(a1-4)]Gal(b1-4)GlcNAc
# Method in brief: as §1
binder,measurement,setting,value
"CFEM-SCL (Saccharomyces cerevisiae), O13547 (protein) MRATTLLSSVVSLALLSKEVLATPPACLLACVAQVGKSSSTCDSLNQVTCYCEHENSAVKKCLDSICPNNDADAAYSAFKSSCSEQNASLGD",glycan array binding signal (z-score),[1],-0.235
same,glycan array binding signal (z-score),[2],0.256
same,glycan array binding signal (z-score),Fuc(a1-2)Gal6S(b1-4)Glc,-0.174
same,glycan array binding signal (z-score),[3],-0.172
same,glycan array binding signal (z-score),Fuc(a1-2)[Gal(a1-3)]Gal,-0.069
same,glycan array binding signal (z-score),[4],-0.182
same,glycan array binding signal (z-score),[5],-0.278
same,glycan array binding signal (z-score),[6],-0.107
same,glycan array binding signal (z-score),[7],-0.318
same,glycan array binding signal (z-score),[8],-0.236
same,glycan array binding signal (z-score),[9],0.2
same,glycan array binding signal (z-score),[10],-0.325
same,glycan array binding signal (z-score),[11],-0.165
same,glycan array binding signal (z-score),[12],-0.122
same,glycan array binding signal (z-score),[13],-0.307
same,glycan array binding signal (z-score),[14],-0.342
same,glycan array binding signal (z-score),[15],-0.34
same,glycan array binding signal (z-score),[16],-0.207
same,glycan array binding signal (z-score),[17],-0.104
same,glycan array binding signal (z-score),[18],-0.291
same,glycan array binding signal (z-score),[19],-0.287
same,glycan array binding signal (z-score),[20],0.815
same,glycan array binding signal (z-score),[21],0.411
same,glycan array binding signal (z-score),[22],-0.053
same,glycan array binding signal (z-score),[23],-0.208
same,glycan array binding signal (z-score),[24],-0.263
same,glycan array binding signal (z-score),[25],-0.32
same,glycan array binding signal (z-score),[26],-0.218
same,glycan array binding signal (z-score),[27],-0.391
same,glycan array binding signal (z-score),[28],-0.316
same,glycan array binding signal (z-score),[29],1.01
same,glycan array binding signal (z-score),[30],-0.289
same,glycan array binding signal (z-score),[31],-0.233
same,glycan array binding signal (z-score),[32],-0.256
same,glycan array binding signal (z-score),[33],-0.31
same,glycan array binding signal (z-score),[34],-0.291
same,glycan array binding signal (z-score),[35],-0.326
same,glycan array binding signal (z-score),[36],-0.339
same,glycan array binding signal (z-score),[37],-0.204
same,glycan array binding signal (z-score),[38],-0.26
same,glycan array binding signal (z-score),[39],-0.325
same,glycan array binding signal (z-score),[40],-0.22
same,glycan array binding signal (z-score),[41],0.231
same,glycan array binding signal (z-score),[42],2.67
same,glycan array binding signal (z-score),[43],-0.314
